Measurements as given in ChEMBL document CHEMBL4888484, “Replenishing the malaria drug discovery pipeline: Screening and hit evaluation of the MMV Hit Generation Library 1 (HGL1) against asexual blood stage Plasmodium falciparum ,using a nano luciferase reporter read-out” (2022).
Among all 150,000 compounds or so, about 540 (0.36%) showed an effect of 50% or more. This is one part of the list.

These molecules were tested on Plasmodium falciparum (assay: Primary screen in NF54 nanoGlo assay, in single point, at 2uM, 72h; a lower Z score goes with more inhibition). Conditions: timepoint 72 hour.
Type: functional, Erythrocyte

SMILES	% Inhibition	Z score
Cc1nn(C)cc1CN1CCOc2ccccc21	-2%	0.14
COc1ccc(CN2CCn3nc(C(=O)N4CCN(Cc5ccccc5)CC4)cc3C2=O)cc1	-12%	1.42
Cc1cc(C)nc(N2CCC(Oc3ccc4ncccc4c3)(C(=O)O)CC2)n1	-1%	0.08
Cc1noc(-c2ccc(C)c(NC(=O)c3ccc(Br)c(S(=O)(=O)N(C)C)c3)c2)n1	2%	-0.41
Cc1ccccc1C(C(C)Nc1cccc(C(=O)O)n1)N(C)C (stereo unspecified)	-5%	0.44
COc1ccccc1NC(=O)N1CC[C@@H](CO)N(C)c2cccnc2C1	-2%	0.34
CCOC(=O)c1c(S(=O)(=O)N2CCC[C@H](C(=O)Nc3cccc(C)c3C)C2)c(C)n(C)c1C	-12%	1.11
O=C(CS(=O)(=O)C1CCCC1)N[C@H](c1ccc(F)cc1)c1ncc[nH]1	-19%	2.08
Cc1cccc(-c2nc(C)c(-c3cc(C(=O)N4CCc5ccccc5C4)[nH]n3)s2)c1	2%	-0.32
Cc1cnc(C(C)(C)NCC(=O)NCc2ccco2)s1	3%	-0.33
COc1cc(N2CCn3c(nc4cc(Cl)ccc43)C2)ccc1NC(=O)c1ccccc1OC	32%	-4.38
Cn1c(C(=O)NC(C)(C)C)cc2c1CCN(Cc1cccc(F)c1)C2	-19%	2.57
O=C(NC1CCCCCC1)c1cc2c(s1)CCCCC2	7%	-0.87
Cc1cnc(N2C[C@H](CO)[C@@H](CO)C2)nc1N(C)C	-3%	0.48
CCn1cc(C(=O)Nc2ccc(Cl)c(C(F)(F)F)c2)cn1	16%	-2.82
Cc1cc(=O)cc(C(=O)NC2(CN3CCCCC3)CC2)[nH]1	-19%	2.42
Cc1ccsc1COc1cnccn1	-13%	1.62
CCn1cc(OCCN2CCCCC2)cn1	-6%	0.75
CCOCCCNC(=O)C1CCN(c2nc3ccccc3n(Cc3ccccc3)c2=O)CC1	-4%	0.64
O=C(N[C@H]1CCCS(=O)(=O)C1)c1ccc(C(F)(F)F)c(=O)[nH]1	-1%	0.16
CC(C)CN(CC(N)=O)c1ccc(C(F)(F)F)cn1	6%	-0.78
CC[C@H](C)c1nc(NC2CCC(NC(=O)c3cccs3)CC2)c2cnn(-c3ccccc3Cl)c2n1 (stereo partly specified)	-10%	1.39
Cn1cc(C2C[S+]([O-])CCN2C(=O)CCc2ccsc2)cn1 (stereo unspecified)	-12%	1.28
